Measured values: ChEMBL document CHEMBL4888484, “Replenishing the malaria drug discovery pipeline: Screening and hit evaluation of the MMV Hit Generation Library 1 (HGL1) against asexual blood stage Plasmodium falciparum ,using a nano luciferase reporter read-out” (2022)
About 540 (0.36%) of roughly 150,000 compounds showed an effect of 50% or more. Some of the results follow.

Tested on: Plasmodium falciparum
Assay: Primary screen in NF54 nanoGlo assay, in single point, at 2uM, 72h; a lower Z score goes with more inhibition
Type: functional, Erythrocyte
Details: timepoint 72 hour

In the case of `CCc1ccc(CC)c(NC(=O)N(CCO)CC(F)F)c1`, the “% Inhibition” value is reported as -6% and the Z score is reported as 0.56.

`CN(C)c1cccc(-c2cc3c(cc2OC(C)(C)C(=O)O)OCC3)c1` was tested, and the “% Inhibition” value was -4% and the Z score was 0.83.

`O=C(c1ccco1)N1CCOc2ccc(CN3CCc4ccccc4C3)cc2C1` was tested, and the “% Inhibition” value was -13% and the Z score was 1.43.

In the case of `CC(C)(C)[C@@H]1CN(c2cc(CO)cc(C(F)(F)F)n2)CCO1`, the “% Inhibition” value is reported as -8% and the Z score is reported as 0.79.

`CCC(=O)Nc1ccc(-n2nc(OCCc3ccc(OC)cc3)nc2-c2ccc(Cl)c(Cl)c2)cc1` was tested, and the “% Inhibition” value was -12% and the Z score was 1.19.

`Cn1nc(-c2nc(-c3cccc(F)c3)no2)c2c1CCN(C(=O)c1cccc(F)c1)C2` was tested, and the “% Inhibition” value was -7% and the Z score was 0.84.

In the case of `CC(Cn1cncn1)NC(=O)CC(O)c1cc(Cl)cc(Cl)c1` (centres undefined), the “% Inhibition” value is reported as -7% and the Z score is reported as 1.18.

With `CCc1ccc(CN(CCN2C(=O)NC(C)(C)C2=O)C2CC2)cc1` the “% Inhibition” value was -41% and the Z score was 4.83.

`O=C1NC(=O)[C@H](CCC(=O)N(Cc2cccnc2)C2CCCCC2)N1` was tested, and the “% Inhibition” value was -12% and the Z score was 1.24.

In the case of `Cn1cc(C(NC(=O)c2cc3ncccn3n2)[C@H]2C[C@@H](O)C2)cn1` (some centres undefined), the “% Inhibition” value is reported as -13% and the Z score is reported as 1.37.

For `COCc1nnc2n1CC[C@@H](NC(=O)c1sc(C)nc1C)CC2`, the “% Inhibition” value was -6% and the Z score was 0.86.

For `Cc1ccc2[nH]c3c(c2c1)CC(NC(=O)N1CCCC(C2CCCCO2)C1)CC3` (centres undefined), the “% Inhibition” value was -4% and the Z score was 0.79.

For `O=C(NCc1ccc(F)cc1)[C@@H]1Cc2c(ccc3ccccc23)O1`, the “% Inhibition” value was -13% and the Z score was 1.64.

In the case of `Cc1c(CN2CCC[C@@](F)(C(=O)N3CCCC3)C2)cnn1C`, the “% Inhibition” value is reported as -18% and the Z score is reported as 1.6.

In the case of `CC(=O)N1C[C@@H]2C[C@H](NC(=O)c3ccc(C)c(F)c3)CN2C(=O)[C@@H]1C`, the “% Inhibition” value is reported as -20% and the Z score is reported as 1.73.

`Cc1noc(C)c1S(=O)(=O)NC1CCN(C)CC1` was tested, and the “% Inhibition” value was 7% and the Z score was -0.84.

In the case of `N#Cc1ccc(S(=O)(=O)Nc2nccn3ccnc23)cc1`, the “% Inhibition” value is reported as -6% and the Z score is reported as 0.89.

In the case of `O=S(=O)(NCCNc1ccc(-n2cccn2)nn1)c1cccs1`, the “% Inhibition” value is reported as 4% and the Z score is reported as -0.71.

For `CC1C(=O)CCN(CCc2ccccc2)C1C` (centres undefined), the “% Inhibition” value was -10% and the Z score was 1.24.

For `CC(=O)N(CCN1CCCCC1)[C@H]1CCCN(Cc2cccc(Cl)c2)C1`, the “% Inhibition” value was 14% and the Z score was -1.89.

`CCOC(=O)N1CCC(Nc2cc(-c3ncco3)ccc2C)CC1` was tested, and the “% Inhibition” value was 22% and the Z score was -2.52.

For `COc1ccc(OC)c(NC(=O)Cn2c(=O)c3c(C(=O)N4CCCCC4)cc(C)nc3n(C)c2=O)c1`, the “% Inhibition” value was 8% and the Z score was -1.07.

With `COc1ccc(NC(=O)c2ccoc2C)cc1S(=O)(=O)N1CCCCC1` the “% Inhibition” value was -8% and the Z score was 1.22.

For `COc1ccc(OCc2cc(C(=O)N[C@@H](C)Cc3ccccn3)no2)c2ccccc12`, the “% Inhibition” value was -5% and the Z score was 0.72.

`Cc1ccc(NC(=O)c2ccc3c(c2)[C@@H](O)CCCCCN3C)cc1` was tested, and the “% Inhibition” value was -15% and the Z score was 1.77.

With `CCCOc1ccc(-c2nnc3n2CC[C@H](C(=O)OC)C3)cc1OC` the “% Inhibition” value was 3% and the Z score was -0.38.

With `O=C1C[C@@H](c2ccccc2)n2nc(NC(=O)c3ccc(Cl)cc3Cl)nc2N1` the “% Inhibition” value was -7% and the Z score was 0.73.

In the case of `Cc1[nH]c2ccnn2c(=O)c1CC(=O)N(CC1CC1)C1CCCCC1`, the “% Inhibition” value is reported as 30% and the Z score is reported as -3.41.

`CCOCCCN(Cc1ccco1)S(=O)(=O)c1cc2c(cc1C)NC(=O)CO2` was tested, and the “% Inhibition” value was -15% and the Z score was 1.82.

For `Cc1nnsc1CN(C)C(=O)CN1C(=O)COc2cccnc21`, the “% Inhibition” value was -9% and the Z score was 1.45.

With `CC(C)N1CCC(NCc2cn(C(C)(C)C)nn2)C1c1ccc(Cl)c(F)c1` (centres undefined) the “% Inhibition” value was -6% and the Z score was 0.56.

For `O=C(NC[C@H]1CCCC1(F)F)c1ccc2c(c1)COC2`, the “% Inhibition” value was -6% and the Z score was 1.14.

For `Cc1noc(CCNC(=O)NC[C@H](O)c2cccs2)n1`, the “% Inhibition” value was -2% and the Z score was 0.19.

`COc1ncc(Br)c(NCCc2cc[nH]n2)n1` was tested, and the “% Inhibition” value was -16% and the Z score was 2.12.

In the case of `CC[C@H](N)C(=O)Nc1cccc(C(=O)N(C)C)c1C`, the “% Inhibition” value is reported as -11% and the Z score is reported as 1.87.

In the case of `Cc1noc(C)c1S(=O)(=O)NCc1cccnc1N1CCCCCCC1`, the “% Inhibition” value is reported as -19% and the Z score is reported as 1.75.

With `COC(=O)Nc1cccc(OS(=O)(=O)CC2(OC)CCCC2)c1` the “% Inhibition” value was 2% and the Z score was -0.27.

With `O=C(NCc1cccnc1-c1ccncc1)c1cnccn1` the “% Inhibition” value was -11% and the Z score was 1.24.

For `CCn1cc(S(=O)(=O)Nc2ccc(-c3nc4ccc(Cl)cc4s3)c(Cl)c2)cn1`, the “% Inhibition” value was -9% and the Z score was 1.1.

In the case of `C[C@@H](Cc1cccs1)NC(=O)Cc1n[nH]c(=O)[nH]1`, the “% Inhibition” value is reported as 7% and the Z score is reported as -0.87.

`Cc1cccc(NC(=O)CCS(=O)(=O)c2ccc3c(c2)CC(=O)N3C)c1C` was tested, and the “% Inhibition” value was -11% and the Z score was 1.45.

For `COc1nscc1CN(C)C(=O)Cc1ccco1`, the “% Inhibition” value was 16% and the Z score was -2.05.
